In all, about 46,000 compounds went through this assay and about 60 (0.1%) were called active. Not shown: some 3% with an inconclusive outcome. Calls come from the whole dose curve; as a rule, active = well fitted inhibition curve with a large enough effect; inconclusive = small, poorly fitted or top-dose-only effect; inactive = no such curve, though single readings can be large or run the other way. The list shows a part of the results.
Test: Primary qHTS assay for Inhibitors of ovarian cancer metastasis using an organotypic tumor microenvironment (TME) model.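 For activity change, negative = inhibition: plate controls were DMSO wells for no effect and tomatine positive control wells for full effect.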 Note: nearly all actives have a fitted effect of over 65% in size.
Conditions: SKOV3ip1-GFP adhesion/invasion on 3D omental model, fluorescence; series mostly up to 45.8 µM; activity change, negative = inhibition: at the top concentration
Procedure, shortened: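 Primary human omental fibroblast/mesothelial 3D culture pre-formed 48 h. SKOV3ip1-GFP cells added with compounds (0.36-46 umol/L), incubated 2 h RT/16 h 37 C, fixed; GFP cells quantified at 488/509 nm.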

Row | SMILES | activity change, negative = inhibition | outcome
1 | COc1cc(C(=O)N2CCc3c([nH]c4ccccc34)C2c2ccccc2)cc(OC)c1OC (stereo not given) | inactive: -1.17% | –
2 | CCOC(=O)C1CCC(CN(Cc2c(Cl)cccc2Cl)S(=O)(=O)c2ccc(F)cc2)CC1 (stereo not given) | inactive: -9.97% | –
3 | Cc1ccc(C)c(N2CCN(C(=O)c3cc(S(=O)(=O)N4CCCC4)cn3C)CC2)c1 | inactive: 1.43% | –
4 | CCc1nnc(SCc2nc(-c3ccc(OC)cc3)oc2C)c2cc3sccc3n12 | – | inactive
5 | COc1ccccc1CCNC(=O)Cn1ccc2cc(S(=O)(=O)N3CCCCCC3)ccc21 | inactive: 2.54% | –
6 | COc1cccc(-c2nn(C)c3sc(C(=O)N4CCN(c5cccc(C)c5)C(C)C4)cc23)c1 (stereo not given) | inactive: -4.47% | –
7 | CC(S)C(=O)NCC(=O)O (stereo not given) | inactive: 24.1% | –
8 | CSc1ncc(C(=O)N2CCN(c3ccc(F)cc3)CC2)c(C)n1 | inactive: 21% | –
9 | CCn1cc(C(=O)NCc2ccccc2Cl)c(=O)c2cc(S(=O)(=O)N3CCCCC3)ccc21 | inactive: 2.02% | –
10 | CCOc1ccc(N(CC)C(=O)CSc2n[nH]c(-c3ccccc3)n2)cc1 | inactive: -12.8% | –
11 | Cc1ncc(CO)c2c1Oc1nc(-c3ccccc3)nc(SCC(=O)Nc3cccc(C(F)(F)F)c3)c1C2 | inactive: 4.1% | –
12 | CCCCn1c(-c2ccc(C)cc2)c(C)n2c3c(=O)n(C)c(=O)n(C)c3nc12 | inactive: -8.86% | –
13 | Cc1ccc(OCCCCn2c(CCNC(=O)C(C)(C)C)nc3ccccc32)cc1 | inactive: 2.39% | –
14 | Cc1ccccc1-c1noc(CSc2nnc(-c3ccncc3)n2-c2ccc(F)cc2)n1 | inactive: -0.492% | –
15 | Cc1ccccc1NC(=O)CN1C(=O)CCn2nc(-c3cccn3C)cc21 | inactive: 1.97% | –
16 | Cc1sc2c(c1C)c(=O)n(-c1cccc(C(F)(F)F)c1)c(=O)n2Cc1ccccc1C#N | inactive: 7.48% | –
17 | Cc1oc(-c2ccc(C(=O)NCc3ccccc3)cc2)nc1CS(=O)(=O)c1ccccc1 | inactive: -11.4% | –
18 | COc1ccc(-c2coc3c2c(C)cc2oc(=O)cc(C)c23)cc1 | inactive: -15.2% | –
19 | O=C(NC1CCCC1)c1ccc2c(c1)N(Cc1ccccc1F)C(=O)c1ccccc1S2 | inactive: -5.14% | –
20 | CC1=C(C(=O)Nc2cccnc2)C(c2ccccc2)n2nc(SCc3ccccc3F)nc2N1 (stereo not given) | – | inactive

Row | SMILES | activity change, negative = inhibition | outcome
21 | O=C(Cc1ccccc1)Nc1cccc(-c2nc3cccnc3s2)c1 | – | inactive
22 | O=C(CSc1n[nH]c(-c2ccccc2Cl)n1)N1CCN(c2ccccc2F)CC1 | inactive: -7.02% | –
23 | CCOc1ccc(N(CC(=O)NCc2ccc(Cl)cc2)S(=O)(=O)c2c(C)noc2C)cc1 | – | inactive
24 | COc1ccc(CCN2C(=O)N(c3ccc(F)cc3)C(=O)C2CC(=O)Nc2ccc(F)c(F)c2)cc1 (stereo not given) | inactive: 4.08% | –
25 | Cc1cccc(N2CCN(C(=O)c3oc(=O)c4ccccc4c3-c3ccccc3)CC2)c1C | inactive: -12.4% | –
26 | Cc1ccc(C(=O)Nc2ccc(OCc3cc(=O)n4c5c(sc4n3)CCCC5)cc2)cc1 | – | inactive
27 | Cc1c(NC(=O)c2ccc(N3CCC(C)CC3)c([N+](=O)[O-])c2)cccc1-c1nc2ccccc2o1 | inactive: 0.555% | –
28 | CC(C)[N+]1(C)[C@@H]2CC[C@H]1CC(OC(=O)C(CO)c1ccccc1)C2 (stereo not given in full) | inactive: -5.24% | –
29 | Cc1cc(NC(=O)Nc2csc3c2CCCC3)ccc1Br | – | inactive
30 | COCCCNC(=O)C1CCC(Cn2c(=O)c3sccc3n(Cc3ccc(F)cc3)c2=O)CC1 (stereo not given) | inactive: 6.9% | –
31 | COc1ccc(-c2noc(N3CCN(c4cccc(C)c4C)CC3)n2)cc1OC | inactive: -12.6% | –
32 | Cc1ccc(OCc2ccc(-c3nc(C#N)c(N4CCC(C)CC4)o3)o2)cc1 | inactive: 5.2% | –
33 | CCc1cccc(C)c1NC(=O)C(C)Sc1nc2c(c(=O)[nH]1)CCCC2 (stereo not given) | inactive: -7.73% | –
34 | COc1ccc(CCNC(=O)CCc2c(C)nc3c(c(C)nn3-c3ccccc3)c2C)c(OC)c1 | inactive: -5.32% | –
35 | O=C(NCc1ccccc1)c1csc(Nc2ccncn2)n1 | inactive: 19.7% | –
36 | COC(=O)c1c(C)sc(-c2c(-c3cccc(Cl)c3)[nH]c3c2c(=O)[nH]c(=O)n3C)c1O | inactive: 11.7% | –
37 | Cc1cc(C)cc(NC(=O)c2sc3nc(-c4cc5ccccc5oc4=O)[nH]c(=O)c3c2C)c1 | – | inactive
38 | COc1ccc(C(=O)CN2C(=O)N(c3cc(C)ccc3C)S(=O)(=O)c3ccccc32)cc1 | inactive: -5.65% | –
39 | CCc1ccccc1NC(=O)C1CCN(C2=NS(=O)(=O)C(c3ccc(C)c(C)c3)=C2C)CC1 | inactive: -25.7% | –
40 | CCCNC(=O)CCC(=O)N1Cc2ccccc2Oc2ncccc21 | inactive: -6.98% | –

Row | SMILES | activity change, negative = inhibition | outcome
41 | CCOC(=O)c1c(C)oc2nc(C)nc(NC(C)c3ccccc3)c12 (stereo not given) | inactive: 2.84% | –
42 | Cc1nc2c3ccccc3nc(NNC(=O)CCC(=O)N3CCN(c4ccccc4)CC3)n2n1 | inactive: 2.92% | –
43 | Cc1cccc(OCC(=O)Nc2ccc3c(c2)nc(CCNC(=O)c2ccco2)n3C)c1 | inactive: -7.5% | –
44 | CNC[C@H](O)c1ccc(O)c(O)c1 | inactive: 5.3% [at 92.2 µM] | –
45 | CC1=C(C(=O)OCc2ccc(C)cc2)C(c2ccccc2Cl)CC(=O)N1 (stereo not given) | – | inactive
46 | COc1ccc(-c2nc3ccccc3s2)cc1NC(=O)COc1ccc(C)cc1 | – | inactive
47 | CCOc1ccc(NC(=O)CSc2nccn2Cc2ccco2)cc1 | – | inactive
48 | COc1ccccc1CNC(=O)c1oc2ccc(S(=O)(=O)N3CCCCC3)cc2c1C | inactive: -11.5% | –
49 | COc1ccc(NC(=O)c2cc3nc(-c4ccc(C)c(C)c4)cc(C(F)(F)F)n3n2)cc1 | inactive: -3.12% | –
50 | CCc1ccccc1NC(=O)c1ccc2c(O)c(S(=O)(=O)c3ccccc3)c(=O)[nH]c2c1 | inactive: 0.656% | –
51 | COc1ccc(OCC(=O)OCc2cc(=O)n3cc(C)sc3n2)cc1 | inactive: 4.25% | –
52 | CCOCCCN1C(=O)CN(C2CCCCCC2)C(=O)C1c1ccc(OC(C)C)c(OC)c1 (stereo not given) | inactive: -6.52% | –
53 | CCC1CCCCN1S(=O)(=O)c1ccc(C(=O)Nc2sc3c(c2C(=O)NC)CCC3)cc1 (stereo not given) | – | inactive
54 | COC(=O)[C@H](CCCN=C(N)N)NS(=O)(=O)c1ccc(C)cc1 | inactive: -4.29% | –
55 | COc1ccc(NC(=O)CSc2nc(-c3ccc(OC)cc3)[nH]c2-c2ccc(OC)cc2)cc1 | inactive: -2.3% | –
56 | Cc1ccc(N(CC(=O)NCc2ccc(Cl)cc2)S(=O)(=O)N(C)C)cc1 | inactive: 8.72% | –
57 | CCOC(=O)C1CCN(C(=O)CCS(=O)(=O)c2cc3c(cc2Cl)NC(=O)CO3)CC1 | – | inactive
58 | Cc1ccc(CSc2ncc(Cl)c(C(=O)NCCc3ccc(S(N)(=O)=O)cc3)n2)cc1 | inactive: -7.52% | –
59 | COC(=O)c1ccc(Nc2nnc(-c3ccc(C)c(S(=O)(=O)N4CCN(C)CC4)c3)c3ccccc23)cc1 | inactive: -10.4% | –
60 | Cc1cccc(CN2C(=O)c3ccccc3S(=O)(=O)c3ccc(C(=O)NCCC4=CCCCC4)cc32)c1 | inactive: -3.89% | –

— PubChem BioAssay AID1963576 (National Center for Advancing Translational Sciences (NCATS), 2024)
